Data published in publication PMC10726135.
This is one part of the list. At the low end of the ranking the order means little. The protein was read in a cell extract, so binding may be indirect.

The sequences below were run against T1, HNF4alpha2 (COS-7 nuclear extract) (UniProt P41235) (assay: protein-binding microarray). Conditions: COS-7 nuclear extract on double-stranded Agilent 4x180k PBM; binding buffer, salt, pH and temperature not given; high values mean tight binding; double strand, one strand shown; sequences stand for … in …GCCTAGGGAGATTAGAGTATCGGTCGA.
T1 sequence: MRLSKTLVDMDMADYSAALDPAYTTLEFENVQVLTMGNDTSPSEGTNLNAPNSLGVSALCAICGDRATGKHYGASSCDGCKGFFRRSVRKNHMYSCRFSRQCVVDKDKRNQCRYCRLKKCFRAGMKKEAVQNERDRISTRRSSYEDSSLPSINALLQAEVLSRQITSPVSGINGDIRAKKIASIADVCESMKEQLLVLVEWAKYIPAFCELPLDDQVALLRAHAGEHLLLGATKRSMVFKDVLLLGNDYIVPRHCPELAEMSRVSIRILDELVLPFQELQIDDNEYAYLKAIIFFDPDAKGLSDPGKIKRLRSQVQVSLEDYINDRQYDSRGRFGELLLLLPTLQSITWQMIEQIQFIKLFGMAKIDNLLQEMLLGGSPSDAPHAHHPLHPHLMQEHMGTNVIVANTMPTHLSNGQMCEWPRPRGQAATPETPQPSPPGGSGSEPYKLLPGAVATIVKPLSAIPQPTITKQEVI
For CTAGGTAAGCACAGGTTTCTGTCCTGGTCA, the binding signal (log2 normalized intensity) was 1.3.
With TTGGTCTTATTATCTTCAATGATAAGGAAT the binding signal (log2 normalized intensity) was 0.897.
TTCAAGTAGAGCTTCACCTCTAAATCTATT was tested, and the binding signal (log2 normalized intensity) was -0.707.
AACTCTGGAGTTTGCCCTTCACAAATTAGA was tested, and the binding signal (log2 normalized intensity) was 2.58.
In the case of AAAAATCCTGCCAAACCAGTTCAACAAGAA, the binding signal (log2 normalized intensity) was -1.14.
GCTGCCCTGCACCTGGAGCCCTTAGGGTCA was tested, and the binding signal (log2 normalized intensity) was 2.22.
AGCAGTGACCATCCCAAAGCTTTTTGATTG gave a binding signal (log2 normalized intensity) of -1.
In the case of TGTCAAGATTGAGACATTCATGGCTTTTGT, the binding signal (log2 normalized intensity) was 0.156.
TGCTGAGGAGGGCCTGGGGGACAGCAGGGG was tested, and the binding signal (log2 normalized intensity) was -1.11.
TTTTGCCCCTGCAGAGTTTTTTACTGCTCC showed a binding signal (log2 normalized intensity) of 0.255.
With GCCTGGGGTTTGGCTCCAAGGCTGAAGGTC the binding signal (log2 normalized intensity) was 3.17.
GGAGCTCATACCTCTTACCAGATAGATGCT showed a binding signal (log2 normalized intensity) of -1.09.
For AGCTGCAAGTGCCAACAAACTCAATCCTGG, the binding signal (log2 normalized intensity) was -1.11.
With GCGCCCTTTGTTCTCCGGGTTCTGCGCAGG the binding signal (log2 normalized intensity) was -0.133.
Work on CAAAGGTGCAAAGGTTAAAATGCCCTCACA yielded a binding signal (log2 normalized intensity) of 5.
Sequence CAAAGGTGAATGACCCCTCCCCTCCCCCTT has a binding signal (log2 normalized intensity) of 5.89.
ATAATCTTTGAAATCTGCAAATAGACATGA gave a binding signal (log2 normalized intensity) of 1.35.
With TGTACAAAGCCATCAGCACTGGTTCAAAGT the binding signal (log2 normalized intensity) was 1.34.
GCTGGGCAGAGGGACAACTGAGTTACGTAA gave a binding signal (log2 normalized intensity) of -0.853.
With ATGTCATGCAGCTAAAAGCAGCATCCCTGA the binding signal (log2 normalized intensity) was -1.13.
TCTCCTCCACAGAGCACAGGATCCAGAGGT gave a binding signal (log2 normalized intensity) of -0.742.
GATCTGGCCAGGCCTGGTTCGGGATTATGG gave a binding signal (log2 normalized intensity) of 1.01.
For TTACAGGCAATTGATAATGATGTTTACATT, the binding signal (log2 normalized intensity) was 0.64.
Sequence TTGACATAAACAGAAGCAATCACAAGGAAT has a binding signal (log2 normalized intensity) of -1.11.
CCTGAAAGAGAGGAGGCTGAAGACTTTGCA was tested, and the binding signal (log2 normalized intensity) was -1.22.
Sequence GTTTTTAAAGGCTTTTAAAGGCTAGTGAAA has a binding signal (log2 normalized intensity) of -0.199.
With TGCCTTAAGTTGAAGTGAGTTGTTTGTTTT the binding signal (log2 normalized intensity) was 2.2.
GACCTCATGTAGTCACATACCTATGCAAAC was tested, and the binding signal (log2 normalized intensity) was 0.671.
For TGAATGGCTGATTGGCAGGCATTCCACACT, the binding signal (log2 normalized intensity) was -1.24.
For CCATATTGACTAAACATTCTTGAATTTCGT, the binding signal (log2 normalized intensity) was 1.57.
AAGCCACAGTACAAAGGTGAGCTTTTATCT showed a binding signal (log2 normalized intensity) of 3.04.
GTGACCTTTGACCTCAGAGAGCCGGAAACT showed a binding signal (log2 normalized intensity) of 7.21.
GCACTGGTTCAAAGTGTAGCGCAGCCAGTT was tested, and the binding signal (log2 normalized intensity) was -0.821.
In the case of TCTGGGGCCTATCTTTCTGTCTCATTCCCT, the binding signal (log2 normalized intensity) was -0.0755.
AAGTCAGGTACTGGTAGCCTGGGCCCCAGG gave a binding signal (log2 normalized intensity) of -0.803.
CAAGAATACGGATTCTTAAGGGCAAAGGTT gave a binding signal (log2 normalized intensity) of 5.88.
For CCCCACTGTAGTAAGGGAGTGTGGGGTGGT, the binding signal (log2 normalized intensity) was -0.108.
TGACTGTGGTACTCCAAAGGTCAGTTTAAT gave a binding signal (log2 normalized intensity) of 4.06.
Sequence TCTTTGCCCATAGAATCTTAGGAAAGCACA has a binding signal (log2 normalized intensity) of -0.987.
TCTTATTGCCTCATGTTTGCAGAATGGCTG showed a binding signal (log2 normalized intensity) of 1.25.
